This is one part of the list. The full chains were built here from the parent and the listed change. Values near 0.05 are background.
B1: TEV protease; numbered along this chain (parent)
chain: MGESLFKGPRDYNPISSSICHLTNESDGHTTSLYGIGFGPFIITNKHLFRRNNGTLVVQSLHGVFKVKDTTTLQQHLVDGRDMIIIRMPKDFPPFPQKLKFREPQREERICLVTTNFQTKSMSSMVSDTSCTFPSGDGIFWKHWIQTKDGQCGSPLVSTRDGFIVGIHSASNFTNTNNYFTSVPKNFMELLTNQEAQQWVSGWRLNADSVLWGGHKVFMVKPEEPFQPVKEATQL

Variants of: B1
Assay: raw area under fraction-flipped curve 0-4 h after induction (AUC4h, not background-subtracted), DNA-recorder readout of cleavage of the substrate (dimensionless); higher = more cleavage of the substrate by the protease variant
Details: temperature: 34 °C; time window: 0-4 h after rhamnose induction
Description: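 In vivo DNA recorder in E. coli TOP10(DE3) ΔrhaA at 34 °C. Each TEVp single-site mutant (parent TEVp 0) is paired with a single-site variant of the 7-mer TEVs (canonical ENLYFQ|S). The substrate sits between flexible linkers in a Bxb1-sfGFP-TEVs-SsrA fusion, so cleavage stabilises Bxb1 and speeds flipping of a recombination array, read by NGS. The value is the raw area under the fraction-flipped curve over 0-4 h after rhamnose induction (AUC4h), with ≥20 reads per time point. It is not background-subtracted; inactive controls average about 0.047.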
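Also: Bxb1 expression induced with 0.2% (w/v) L-rhamnose at OD600 near 0.5, cultures sampled hourly, flipped fraction per protease–substrate barcode pair counted by paired-end Illumina sequencing.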

Variant | area with substrate ENLYFAS | area with substrate ENLYFCS | area with substrate ENLYFDS | area with substrate ENLYFES | area with substrate ENLYFFS | area with substrate ENLYFHS | area with substrate ENLYFIS | area with substrate ENLYFKS | area with substrate ENLYFLS | area with substrate ENLYFMS | area with substrate ENLYFNS | area with substrate ENLYFPS | area with substrate ENLYFRS | area with substrate ENLYFSS | area with substrate ENLYFVS | area with substrate ENLYFWS | area with substrate ENLYFYS | area with substrate ENLYFTS | area with substrate ENLYFGS
I42W | 0.0399 | 0.0514 | 0.0466 | 0.0491 | 0.0644 | 0.0641 | 0.0453 | 0.0477 | 0.0539 | 0.0478 | 0.0441 | 0.0422 | 0.0442 | 0.031 | 0.0433 | 0.0498 | 0.0374 | – | –
I42D | 0.0364 | 0.0449 | – | 0.0476 | 0.0403 | 0.0547 | 0.0467 | – | – | – | – | – | – | – | 0.0504 | 0.0514 | – | 0.0487 | –
I42G | 0.0264 | 0.0276 | – | 0.0575 | 0.0313 | 0.0458 | 0.0357 | 0.0239 | – | 0.0392 | – | 0.0367 | 0.0338 | – | 0.0351 | 0.0372 | 0.0549 | 0.0537 | 0.0543
E3G | 0.061 | 0.0707 | – | 0.0647 | 0.0587 | 0.0561 | 0.0532 | 0.069 | 0.0633 | 0.0678 | 0.0645 | 0.0606 | 0.0552 | 0.0586 | 0.0691 | 0.0706 | – | 0.0593 | 0.0626
I36C | 0.0615 | – | 0.0448 | 0.0603 | 0.0592 | – | 0.0566 | 0.0806 | 0.059 | 0.0601 | 0.0924 | 0.0416 | 0.0319 | 0.046 | 0.0516 | 0.0515 | 0.0709 | 0.0587 | –
I36N | 0.0451 | 0.0471 | – | 0.0562 | 0.0505 | 0.0424 | 0.0468 | 0.0491 | – | 0.0538 | 0.0555 | 0.0439 | 0.052 | 0.0449 | – | – | 0.07 | 0.0439 | 0.046
S4K | 0.0564 | – | 0.0683 | – | 0.0603 | 0.0601 | 0.0519 | – | – | 0.0725 | – | – | 0.0515 | – | – | 0.0624 | – | 0.0473 | –
S4V | 0.0066 | 0.0632 | 0.037 | 0.0672 | 0.0707 | – | 0.0733 | – | 0.0653 | 0.103 | – | – | – | – | 0.0612 | 0.0495 | 0.0584 | 0.0551 | –
S4P | 0.06 | 0.0646 | – | 0.0674 | 0.0666 | 0.0674 | 0.0614 | 0.06 | – | 0.0709 | 0.0645 | 0.0576 | 0.0553 | 0.0763 | 0.0508 | 0.0651 | – | 0.0536 | –
S4E | 0.0596 | 0.0513 | – | 0.0693 | 0.0873 | 0.0541 | 0.0614 | 0.0598 | – | 0.0873 | 0.0629 | 0.0538 | 0.0561 | 0.0576 | – | 0.0559 | 0.0633 | 0.0642 | 0.0429
Y12P | 0.0622 | 0.0664 | 0.0546 | 0.0642 | 0.0658 | 0.0497 | 0.0519 | 0.0796 | 0.0591 | 0.0623 | 0.0541 | 0.0585 | 0.0666 | 0.0569 | 0.0565 | 0.0492 | 0.0613 | 0.0617 | 0.0666
I19Q | 0.0724 | 0.0457 | 0.0419 | 0.0567 | 0.0674 | 0.0802 | 0.0536 | 0.0629 | 0.0368 | 0.0646 | 0.0566 | 0.0634 | – | – | 0.0502 | – | – | 0.0473 | 0.0506
I19T | 0.0564 | – | – | – | 0.048 | – | 0.049 | 0.0584 | 0.0546 | 0.0572 | 0.0679 | 0.0619 | – | – | – | 0.0555 | 0.0528 | 0.0684 | 0.0568
F41N | 0.0534 | 0.0589 | 0.0705 | 0.0612 | – | 0.072 | 0.049 | 0.0706 | 0.0602 | 0.0396 | – | 0.0594 | 0.0565 | – | 0.0643 | 0.0753 | 0.0628 | 0.0442 | 0.0568
G39V | 0.033 | 0.0284 | 0.0506 | 0.0411 | 0.0534 | 0.0474 | 0.0387 | 0.0409 | 0.0416 | 0.0416 | 0.0382 | 0.0451 | 0.0474 | 0.0436 | 0.033 | 0.0449 | – | 0.0465 | 0.0406
G39D | 0.0464 | 0.0619 | 0.0438 | – | 0.0522 | 0.0647 | 0.0385 | 0.0427 | 0.0442 | 0.0365 | – | 0.0426 | 0.0327 | 0.0473 | – | 0.0489 | 0.0461 | 0.0331 | –
G39S | 0.0363 | 0.052 | 0.0472 | – | 0.0487 | 0.045 | 0.0456 | 0.0502 | – | 0.0451 | 0.0446 | 0.0234 | 0.0468 | – | 0.0491 | 0.0437 | – | 0.0327 | –
P40A | 0.0866 | 0.0599 | 0.0608 | 0.111 | 0.0637 | 0.0574 | 0.0496 | 0.065 | – | 0.0607 | 0.0618 | 0.0563 | 0.0436 | – | 0.0561 | – | – | – | 0.0565
G28S | 0.063 | 0.0516 | 0.0567 | 0.0669 | 0.0665 | 0.0544 | 0.0552 | 0.0541 | 0.0616 | 0.0637 | 0.0633 | 0.0659 | 0.0648 | 0.0569 | 0.0579 | – | 0.0552 | 0.0596 | –
G28M | 0.0575 | 0.0597 | – | 0.0643 | 0.0693 | 0.0646 | 0.0516 | – | 0.0526 | 0.0534 | 0.04 | 0.0579 | 0.0631 | 0.0641 | 0.0581 | 0.0475 | 0.0584 | 0.0549 | 0.0476
E25A | 0.0533 | 0.0524 | 0.0614 | 0.0705 | 0.0624 | 0.0549 | 0.0506 | 0.0576 | – | 0.0687 | 0.0605 | 0.0536 | 0.0593 | – | 0.0539 | 0.0497 | – | 0.0669 | –
L5Q | 0.0507 | 0.0554 | – | 0.0678 | 0.0663 | 0.0735 | 0.0478 | 0.0574 | – | 0.0668 | 0.062 | 0.0593 | 0.0703 | 0.0548 | 0.0648 | 0.0456 | 0.0543 | 0.0472 | 0.0627
S18F | 0.0539 | 0.0532 | 0.0625 | 0.061 | 0.0757 | 0.0603 | 0.0549 | 0.0575 | – | 0.0617 | 0.0541 | 0.0608 | – | 0.0525 | 0.0705 | 0.0682 | 0.056 | 0.0565 | 0.0758

— the supplement of paper PMC12217912
